A collection of fitness landscapes (doi:10.1016/j.celrep.2020.107928)
In all, about 81,000 sequences were measured (“one-hybrid fitness for binding parS DNA”: median about -0.17, highest 2% from about 0.51 on). The list shows a part of the results.

B1: Caulobacter ParB omega fusion; a variant is named by its letters at X, in order, B8GW30 (parent)
chain: MESVVVGEPGMSEGRRGLGRGLSALLGEVDAAPAQAPGEQLGGSREAPIEILQRNPDQPRRTFREEDLEDLSNSIREKGVLQPILVRPSPDTAGEYQIVAGERAWRAAQRAGLKTVPIMVRELDDLAVLEIGIIENVQRADLNVLEEALSYKVLMEKFERTQENIAQTIGKSXSHVANXMRLLXLPDEVQSYLVSGELTAXHARAIAAAADPVALAKQIIEGGLSVRETEALARKAPNLSAGKSKGGRPPRVKDTDTQALESDLSSVLGLDVSIDHRGSTGTLTITYATLEQLDDLCNRLTRGI

Variants of: B1
Assay: one-hybrid fitness for binding parS DNA (scaled: cognate 1, non-cognate 0); higher = stronger binding
Details: with parS DNA site
How it was run: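 Pre- and post-selection plasmids were Illumina-sequenced, three replicate libraries were pooled, and any variant with under 10 reads was removed. The libraries were Caulobacter ParB with four specificity codons randomised, selected in E. coli USO through a HIS3 reporter whose site is 19 bp from the promoter. Cells grew 48 hours at 37°C on M9 without histidine, with 0.1 mM IPTG and 5 mM 3-AT. Fitness is the log change in variant-to-wild-type read ratio, rescaled against cognate and non-cognate.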

| Variant | one-hybrid fitness for binding parS DNA |
| --- | --- |
| GNCC | ≤ 0.2 |
| WRLV | ≤ 0.2 |
| EWQR | ≤ 0.2 |
| SIVF | ≤ 0.2 |
| QGLK | ≤ 0.2 |
| TEVT | ≤ 0.2 |
| HQAA | ≤ 0.2 |
| IYVY | ≤ 0.2 |
| IRYG | ≤ 0.2 |
| RHPR | ≤ 0.2 |
| QPAI | ≤ 0.2 |
| TQAN | ≤ 0.2 |
| TGTT | ≤ 0.2 |
| QHSQ | ≤ 0.2 |
| CYEG | ≤ 0.2 |
| FNLT | ≤ 0.2 |
| IQPW | ≤ 0.2 |
| NMTE | ≤ 0.2 |
| SPAQ | ≤ 0.2 |
| NWTG | ≤ 0.2 |
| RASL | ≤ 0.2 |
| NAHS | ≤ 0.2 |
| QVNP | ≤ 0.2 |
| ALSD | ≤ 0.2 |
| CRCF | ≤ 0.2 |
| MRSS | ≤ 0.2 |

| Variant | one-hybrid fitness for binding parS DNA |
| --- | --- |
| LQLN | ≤ 0.2 |
| RPCT | ≤ 0.2 |
| HTNC | ≤ 0.2 |
| ESNW | ≤ 0.2 |
| PGEG | ≤ 0.2 |
| IDVT | ≤ 0.2 |
| HPTT | ≤ 0.2 |
| TLQF | ≤ 0.2 |
| AKAV | ≤ 0.2 |
| VGSC | ≤ 0.2 |
| EPMR | ≤ 0.2 |
| STQK | ≤ 0.2 |
| PFPR | ≤ 0.2 |
| DSRT | ≤ 0.2 |
| KFHG | ≤ 0.2 |
| CFSR | ≤ 0.2 |
| DSKA | ≤ 0.2 |
| PRMC | ≤ 0.2 |
| GAGT | ≤ 0.2 |
| FDAG | ≤ 0.2 |
| GMRD | ≤ 0.2 |
| LNAM | ≤ 0.2 |
| CERM | ≤ 0.2 |
| IFKG | ≤ 0.2 |
| RSTE | ≤ 0.2 |
| WIPH | ≤ 0.2 |

| Variant | one-hybrid fitness for binding parS DNA |
| --- | --- |
| IHKG | ≤ 0.2 |
| EPES | ≤ 0.2 |
| LWDR | ≤ 0.2 |
| RHMY | 0.383 |
| EGSY | ≤ 0.2 |
| MIFG | ≤ 0.2 |
| PVAE | ≤ 0.2 |
| ARMH | ≤ 0.2 |
| HAIS | ≤ 0.2 |
| QFYM | ≤ 0.2 |
| HLQF | ≤ 0.2 |
| SHMK | ≤ 0.2 |
| AYHA | ≤ 0.2 |
| NMLG | ≤ 0.2 |
| RWQW | ≤ 0.2 |
| GYFC | ≤ 0.2 |
| KTMG | ≤ 0.2 |
| RMCE | ≤ 0.2 |
| REAS | 0.212 |
| YMAE | ≤ 0.2 |
| RTYV | ≤ 0.2 |
| TKVW | ≤ 0.2 |
| LVHT | ≤ 0.2 |
| HLHM | ≤ 0.2 |
| EMRS | ≤ 0.2 |
| YQIW | ≤ 0.2 |

| Variant | one-hybrid fitness for binding parS DNA |
| --- | --- |
| PRMI | ≤ 0.2 |
| LKAC | ≤ 0.2 |
| HDNM | ≤ 0.2 |
| AAET | ≤ 0.2 |
| SGLL | ≤ 0.2 |
| VQVS | ≤ 0.2 |
| RNNT | 0.785 |
| LNPS | ≤ 0.2 |
| LQHR | ≤ 0.2 |
| VRKI | ≤ 0.2 |
| PAQV | ≤ 0.2 |
| SVYE | ≤ 0.2 |
| VSPG | ≤ 0.2 |
| QHLM | ≤ 0.2 |
| IPPD | ≤ 0.2 |
| YACG | ≤ 0.2 |
| SLAS | ≤ 0.2 |
| RSGY | 0.482 |
| NASP | ≤ 0.2 |
| WNIT | ≤ 0.2 |
| TIRD | ≤ 0.2 |
| PVRP | ≤ 0.2 |
| VMIL | ≤ 0.2 |
| HHCV | ≤ 0.2 |
| EVHS | ≤ 0.2 |
| LMLD | ≤ 0.2 |

| Variant | one-hybrid fitness for binding parS DNA |
| --- | --- |
| YQMN | ≤ 0.2 |
| QNTV | ≤ 0.2 |
| IPEG | ≤ 0.2 |
| NCDG | ≤ 0.2 |
| TKDQ | ≤ 0.2 |
| TTDY | ≤ 0.2 |
| RRTT | 0.565 |
| ILLY | ≤ 0.2 |
| GIEA | ≤ 0.2 |
| SMPP | ≤ 0.2 |
| EMYW | ≤ 0.2 |
| VPGW | ≤ 0.2 |
| YPSA | ≤ 0.2 |
| SRMY | ≤ 0.2 |
| NITW | ≤ 0.2 |
| PENL | ≤ 0.2 |
| EFYS | ≤ 0.2 |
| QKNI | ≤ 0.2 |
| CYSH | ≤ 0.2 |
| RTQI | ≤ 0.2 |
| MDNV | ≤ 0.2 |
| AIYS | ≤ 0.2 |
| RRME | ≤ 0.2 |
| RMNC | 0.969 |
| WHHG | ≤ 0.2 |
| MQLG | ≤ 0.2 |

| Variant | one-hybrid fitness for binding parS DNA |
| --- | --- |
| QNRM | ≤ 0.2 |
| QPGR | ≤ 0.2 |
| EFSS | ≤ 0.2 |
| MPMW | ≤ 0.2 |
| SKAN | ≤ 0.2 |
| PHYG | ≤ 0.2 |
| NAGS | ≤ 0.2 |
| DGCF | ≤ 0.2 |
| DPYS | ≤ 0.2 |
| QDGF | ≤ 0.2 |
| TARI | ≤ 0.2 |
| GGVW | ≤ 0.2 |
| PRTT | ≤ 0.2 |
| HHYC | ≤ 0.2 |
| FGSG | ≤ 0.2 |
| ACQG | ≤ 0.2 |
| DSYK | ≤ 0.2 |
| TAVG | ≤ 0.2 |
| MVKM | ≤ 0.2 |
| RVIV | ≤ 0.2 |
| IHPG | ≤ 0.2 |
| VDNL | ≤ 0.2 |
| KSKY | ≤ 0.2 |
